Several values for one entry are separate records, joined by “and”; a condition that tells them apart may be missing. Equal values may be shown once. The shares of active, inactive and inconclusive entries below differ from those in the screen. For some of these results: Potencies of inconclusive entries are doubtful fits and often do not repeat. Activity calls are given as the source filed them. Unless noted, the call rests on the fitted dose curve; in most records, active means well fitted curve in the direction sought with a large enough effect; inconclusive means small, poorly fitted or top-dose-only effect, or another doubt; inactive means no such curve, though single readings can be large; an effect the other way counts as inactive or inconclusive.
Assays:
[1] = qHTS Assay for Identification of Small Molecule Antagonists for NFkB Signaling Pathway. (AID 624479; calls by dose curve;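 further: pathway stimulated with TNF alpha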)
[2] = qHTS of pediatric cancer cell lines to identify multiple opportunities for drug repurposing: Primary screen for SJ-GBM2 cells (AID 1347091)
Summary of the method: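 Cell viability, CellTiter-Glo luminescence; 500-1,000 cells/well, 8- or 11-point titration, 48 h compound exposure at 37 degrees C, 5% CO2. Controls: DMSO neutral, bortezomib 2.3 µM final as positive.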

[3] = qHTS of pediatric cancer cell lines to identify multiple opportunities for drug repurposing: Primary screen for control Hh wild type fibroblast cells (AID 1347106); further: nearly all actives have a fitted effect of over 55% in size
Summary of the method: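 Cells (500-1,000/well) in growth media were settled 5 h at 37 degrees C, then given compounds for 48 h. Viability was read as CellTiter-Glo luminescence. Primary runs used MIPE at 11 points (0.78 nM-46 µM) and NPC at 8 points (0.59 nM-46 µM); follow-ups used 11 points.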

[4] = qHTS to identify inhibitors of the type 1 interferon - major histocompatibility complex class I in skeletal muscle: primary screen against the NCATS Mechanism Interrogation Plate v5.0 (MIPE) Libary (AID 1347411); conditions: iHSKM cells + IFN-b, HiBiT-tagged MHC-I luminescence, 24 h; series mostly up to 45.8 µM; further: nearly all actives have a fitted effect of over 65% in size
Summary of the method: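 HLA-B HiBit myoblasts, dexamethasone-free medium + 4 ng/ml IFN-b, 24 h compound, 11-pt 1:3 from 46 uM final. Readout: Nano-Glo HiBiT lytic luminescence after 10 min lysis, RT.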

[5] = Quantitative High-Throughput drug screen in 47 multiple myeloma cell lines against the NCATS MIPE library collection: H1112_PLB cell viability assay (AID 1918967; further: nearly all actives have a fitted effect of over 30% in size)
Summary of the method: (§1)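 qHTS of the MIPE 4.0 collection: 500 myeloma cells/well, 48 h drug exposure at 37C in 5% CO2, then CellTiter-Glo for 5 min at room temperature before luminescence reading.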

[6] = Quantitative High-Throughput drug screen in 47 multiple myeloma cell lines against the NCATS MIPE library collection: KMS27_JCRB cell viability assay (AID 1918970); conditions: KMS27 myeloma cells, CellTiter-Glo ATP viability, 48 h; viability (% of DMSO): at 45.8 µM (top of the series); further: nearly all actives have a fitted effect of over 30% in size
Summary of the method: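 ATP-based viability (CellTiter-Glo luminescence) is measured in cells treated 48 h with approved and investigational drugs at 37 °C. Controls are DMSO-only wells for full viability and media-only wells for none.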

[7] = Quantitative High-Throughput drug screen in 47 multiple myeloma cell lines against the NCATS MIPE library collection: MMM1_PLB cell viability assay (AID 1918976); further: nearly all actives have a fitted effect of over 35% in size
Summary of the method: (§2)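 ATP-based luminescence (CellTiter-Glo, 5 min RT incubation) quantified surviving cells following two days' treatment with MIPE 4.0 agents at 37 °C, 5% CO2.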

[8] = qHTS for identification of novel therapeutic agents for treatment of microphthalmiaassociated transcription factor (MiT) renal cell carcinoma (RCC) (AID 1963991; calls by dose curve); conditions: TFE3-RCC UOK109 viability, CellTiter-Glo, 48 h; active = Z-AUC below -0.8 in all three lines
Summary of the method: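 UOK109/UOK124/UOK145 (TFE3 fusions, three partners); 500 cells/well; MIPE v4.0, 1912 cpds, 11 conc.; 48 h, 37 C; CellTiter-Glo, 15 min RT; lum. Norm.: DMSO 100%, empty 0%.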

MCC-26 = assay: qHTS assay to identify novel small-molecules to repurpose for Merkel cell carcinoma treatment (AID 1296009); conditions: MCC and control cell lines, CellTiter-Glo viability, 72 h; series mostly up to 46 µM; further: nearly all actives have a fitted effect of over 60% in size
Summary of the method: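 Cell viability measured by CellTiter-Glo following 72 hr compound treatment at 37 degree celsius, with NPC and MIPE libraries tested in 8- and 11-point concentration series.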

[9] = Cytotoxicity counterscreen for NFkB agonists and antagonists (AID 624476)
[10] = qHTS of pediatric cancer cell lines to identify multiple opportunities for drug repurposing: Primary screen for NB-EBc1 cells (AID 1347095)
Summary of the method: (§3)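 Plated cells (500-1,000 per well, growth media) were allowed to settle for 5 hours, treated with compound dilutions for 48 hours, then lysed with CellTiter-Glo for 15 min at room temperature before luminescence reading.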

[11] = qHTS of pediatric cancer cell lines to identify multiple opportunities for drug repurposing: Primary screen for Saos-2 cells (AID 1347097); conditions: Saos-2 viability, CellTiter-Glo ATP luminescence, 48 h; activity change, negative = cytotoxic: at 46 µM (top of the series); further: nearly all actives have a fitted effect of over 40% in size
Summary of the method: as §3

[12] = qHTS of pediatric cancer cell lines to identify multiple opportunities for drug repurposing: Primary screen for SK-N-SH cells (AID 1347098); conditions: SK-N-SH viability, CellTiter-Glo luminescence, 48 h; activity change, negative = cytotoxic: at 57 µM (top of the series); further: nearly all actives have a fitted effect of over 65% in size
Summary of the method: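 Cells (500-1,000/well) rested 5 h, then received compounds for 48 h; metabolically active cells were measured by CellTiter-Glo luminescence. Final concentrations spanned up to 46 µM (MIPE, 11-point) or 0.59 nM-46 µM (NPC, 8-point) in primary screens, 11-point in follow-ups.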

[13] = Quantitative High-Throughput drug screen in 47 multiple myeloma cell lines against the NCATS MIPE library collection: OCIMY7_PLB cell viability assay (AID 1918987); conditions: OCI-MY7 myeloma viability, CellTiter-Glo ATP, 48 h; viability (% of DMSO): at 45.8 µM (top of the series); further: nearly all actives have a fitted effect of over 65% in size
Summary of the method: as §2

[14] = Quantitative High-Throughput drug screen in 47 multiple myeloma cell lines against the NCATS MIPE library collection: OPM2_DSMZ cell viability assay (AID 1919872); further: nearly all actives have a fitted effect of over 30% in size
Summary of the method: as §1

[15] = Quantitative High-Throughput drug screen in 47 multiple myeloma cell lines against the NCATS MIPE library collection: KMS28BM_JCRB cell viability assay (AID 1919874); further: nearly all actives have a fitted effect of over 35% in size
Summary of the method: as §2

[16] = Primary qHTS for inhibitors of nuclear receptor binding SET domain protein 2 (NSD2) in an isogenic RCH-ACV NSD2 p.E1099K mutant (9B) (AID 1645876); further: nearly all actives have a fitted effect of over 70% in size
[17] = qHTS of pediatric cancer cell lines to identify multiple opportunities for drug repurposing: Primary screen for NB1643 cells (AID 1347099); further: nearly all actives have a fitted effect of over 50% in size
Summary of the method: as §3

[18] = qHTS of pediatric cancer cell lines to identify multiple opportunities for drug repurposing: Primary screen for TC32 cells (AID 1347089); further: nearly all actives have a fitted effect of over 60% in size
Summary of the method: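 qHTS, TC32, 48 h drug treatment, CellTiter-Glo luminescence as a proxy for metabolically active cells; primary top concentration 46 µM (MIPE 11-pt, NPC 8-pt); confirmatory 11-pt.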

[19] = qHTS of pediatric cancer cell lines to identify multiple opportunities for drug repurposing: Primary screen for MG 63 (6-TG R) cells (AID 1347105); conditions: MG 63 (6-TG R) viability, CellTiter-Glo, 48 h; activity change, negative = cytotoxic: at 46 µM (top of the series) unless noted; further: nearly all actives have a fitted effect of over 50% in size
Summary of the method: as §3
Potency means the concentration at half of the fitted maximal effect; tags describe the fitted curve by direction and shape.

CC[C@@H]1C(=O)N(C)c2cnc(Nc3ccc(C(=O)NC4CCC(N5CCN(CC6CC6)CC5)CC4)cc3OC)nc2N1C(C)C (stereo partly specified)
Potency [1]: active: 5.3 µM | Potency [2]: active: 0.0743 µM | Potency [3]: inconclusive: 11.8 µM [cytotoxic, partial curve] | Potency [4]: active: 6.58 µM | Potency [5]: inconclusive: 2.64 µM [cytotoxic, partial curve, poor fit] | Potency [6]: inconclusive: 8.33 µM [cytotoxic, full curve, poor fit] | Potency [7]: active: 7.43 µM | Potency [8]: active: 3.72 µM | Potency (MCC-26): inconclusive: 0.148 µM [inhibitor, full curve]

C[C@@H](Oc1cc(-n2cnc3ccc(CN4CCN(C)CC4)cc32)sc1C(N)=O)c1ccccc1C(F)(F)F
Potency [9]: inconclusive: 33.2 µM [inhibitor, single point] | Potency [10]: active: 46.9 nM | Potency [11]: inconclusive: 33.2 nM [cytotoxic, full curve, poor fit] | Potency [12]: active: 0.108 µM | Potency [3]: inconclusive: 37.2 µM [cytotoxic, single point] | Potency [5]: inconclusive: 23.5 µM [cytotoxic, partial curve, poor fit] | Potency [6]: inconclusive: 0.418 µM [rising, full curve, poor fit] | Potency [7]: active: 16.6 µM | Potency [13]: inconclusive: 18.7 nM [cytotoxic, full curve, poor fit] | Potency [14]: active: 0.059 µM | Potency [15]: inconclusive: 0.0332 µM [cytotoxic, full curve, poor fit] | Potency [8]: active: 6.62 µM | Potency (MCC-26): inconclusive: 0.0935 µM [inhibitor, full curve, poor fit]

Cc1cncc2cccc(S(=O)(=O)N3CCCN(C(=O)CN)C[C@@H]3C)c12
Potency [2]: inconclusive: 2.64 µM [cytotoxic, full curve] | Potency [10]: inconclusive: 3320 nM [cytotoxic, full curve] | Potency [11]: active: 2350 nM | Potency [12]: inconclusive: 12.1 µM [cytotoxic, partial curve] | Potency [16]: inconclusive: 6.61 µM [inhibitor, partial curve] | Potency [6]: active: 0.418 µM | Potency [7]: inconclusive: 0.166 µM [rising, full curve, poor fit] | Potency [13]: active: 11800 nM

COc1ccc(C(=O)CC2(O)C(=O)Nc3c(Cl)ccc(Cl)c32)cc1 (stereo unspecified)
Potency [12]: inconclusive: 3.41 µM [cytotoxic, full curve] | Potency [17]: inconclusive: 2.64 µM [cytotoxic, full curve] | Potency [3]: inconclusive: 18.7 µM [cytotoxic, partial curve] | Potency [16]: active: 2.58 µM | Potency [5]: active: 13.2 µM | Potency [6]: active: 1.05 µM | Potency [14]: active: 9.35 µM | Potency [15]: inconclusive: 1.48 µM [cytotoxic, full curve] | Potency [8]: inconclusive: 9.35 µM [falling, full curve] | Potency (MCC-26): inconclusive: 8.33 µM [inhibitor, partial curve]

COc1c(OCCCN2CCOCC2)ccc2c3n(c(=NC(=O)c4cnc(N)nc4)nc12)CCN3
Potency [2]: active: 2.04 µM | Potency [11]: active: 51.2 nM | Potency [17]: inconclusive: 0.0162 µM [cytotoxic, full curve] | Potency [5]: inconclusive: 0.0812 µM [cytotoxic, full curve] | Potency [13]: inconclusive: 28.8 nM [cytotoxic, full curve] | Potency [14]: active: 2.04 µM | Potency (MCC-26): inconclusive: 1.29 µM [inhibitor, partial curve, poor fit]

CC(C)Nc1cc(-c2c[nH]c(C(=O)N[C@H](CO)c3cccc(Cl)c3)c2)c(Cl)cn1
Potency [4]: inconclusive: 20.8 µM [inhibitor, single point] | Potency [16]: active: 20.5 µM and inconclusive: 20.6 µM [inhibitor, single point] and active: 2.95 µM

CC(C)c1onc(-c2c(Cl)cccc2Cl)c1COc1ccc(/C=C/c2cccc(C(=O)O)c2)c(Cl)c1
Potency [1]: active: 21.1 µM

COc1cc2ncnc(Nc3ccc(F)c(Cl)c3)c2cc1OCCCN1CCOCC1
Potency [9]: inactive | Potency [1]: inconclusive: 18.8 µM [inhibitor, partial curve] | Potency [18]: inconclusive: 21 µM [cytotoxic, single point] | Potency [2]: active: 1.71 µM and active: 8.41 µM | Potency [11]: inconclusive: 26600 nM [cytotoxic, single point] | Potency [17]: active: 34 µM and inconclusive: 21.1 µM [cytotoxic, single point] | Potency [19]: active: 27 µM and inconclusive: 1.68 µM [cytotoxic, partial curve, poor fit] | Potency [3]: inconclusive: 1.08 µM [cytotoxic, full curve, poor fit] and inconclusive: 8.41 µM [cytotoxic, partial curve] | Potency [13]: active: 1080 nM | Potency [15]: inconclusive: 7.62 µM [cytotoxic, full curve, poor fit] | Potency (MCC-26): inconclusive: 42.9 µM [inhibitor, partial curve]

Source: PubChem BioAssay (NCATS)
